The text below walks through data of the RNAGym collection of RNA variant scans (doi:10.1093/nar/gkz1192).

The source gives no read counts; variants with many changes may rest on few reads.

B1: CPEB3 Ribozyme (parent)
chain: UAACAGGGGGCCACAGCAGAAGCGUUCACGUCGCAGCCCCUGUCAGAUUCUGGUGAAUCUGCGAAUUCUGCUGUAUAUCUC

The series covers variants of B1. Kind of series: self-cleavage, relative activity (ratio to wild type); higher = more cleavage; in vitro, sequencing. The essentials:
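After error-prone PCR and barcoding, CPEB3 ribozyme mutant libraries were transcribed with T7 RNA polymerase at 37°C for 5 hours, then given 15 min with DNase I before an EDTA stop, and they cleaved during both steps. Reverse transcription with template switching preceded Illumina sequencing. Relative activity divides a variant's cleaved/total read fraction by the unmutated ribozyme's. At least 5 reads were required per variant, and three batches were averaged.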
On to UAACUGGGGGCCACAGCAGAAGCGUUCACGUCGCAGCCCCAGUCCGAUUCUGGUGAGUCUGCGAAUUCUGCUGUAUAUCUC, for which the self-cleavage came out at 0.19. Then UAACUGGGGGCCACAGCAGAAGCGUUCACGUCGCAGCCCCCGUCAGAUUCUGGUGAACCUGCGAAUUCUGCUGUAUAUCUC, with 0.35; and UAACUGGGGGCCACAGCAGAAGCGUUCACGCCGUAGCCCCUGUCAGGUUCUGGUGAGUCUGCGAAUUCUGCUGUGUAUCUC, with 0.07; and UAACUGGGGGCCACAGCAGAAGCGUCCACGUCGCAGCCCCUGUCAGAUUCUGGUGAAUCUGCGAAUUCGGCUGUAUAUCUC, with 0.28.

Turning to UAACUGGGGGCCACAGCAGAAGCGUUCACGUCGCAGCCCCCGUCAGAUUCUGGCGAAUCUGCGAAUUCUGCUGUAUACCUC, the self-cleavage turned out to be 0.98. Then UAACUGGGGGCCACAGCAGAAGCGUUCACGUCGCAGCCCCUGCCAGAUUCUGGUGAAUCUACGAAUUCUGCUGUACAUCUC, with 0.19; and UAACUGGGGGCCACAGCAGAAGCGUUCACGUCGCAGCCCCUGCCAGAUUCUGGUGAACCAGCGUAUUCAGCCGUAUAUCUC, with 0.14. In the case of UAACUGGGGGCCACAGCAGAAGCGUUCACGUCGCAGCCCCUGACAGAUUCUGGUGAAUCUGCGUAUUCUGCUGUAUAUCUC, the self-cleavage is 0.44. For the variant UAACUGGGGGCCACAGCAGAAGCGUGCACGUCGCAGCCCCUGUCAGAUUCUGGCGACUCUGCGAAUUCUGCUGUAUAUCUC, the self-cleavage was 0.35. With UAACUGGGGGCCACAGCAGAAGCGUUCACGUCGCAGCCCCCGUCAGAUUCUGGUAAAUCUGCGAAUUCUGCUGUAUACCUC the figure was 0.94; with UAACUGGGGGCCACAGCAGAAGCGUUCACGUCGCAGCCCCUGUCAGAACCUGGUGUAUCAGCGAAUUCUGCUGUAUAUCUC, 0.11; with UAACUGGGGGCCACAGCAGAAGCGUUCACGUCGCAGCCCCCGUCAGGUUCUGGUGAAACUGCGGAUUCUGCUGUAUAUCUC, 0.33. With UAACUGGGGGCCACAGCAGAAGCGUUCACGUCGCAGCCCCUGUCAGACUCUGGUGGAUCUGCGUAUUCCGCUGUAUAUCUC the figure was 0.19; with UAACUGGGGGCCACAGCAGAAGCGUUCACGUCGCAGCCCCUGACAGAUUCCGGUGAAUCUGCUAAUUCUGCUGUAUAUCUC, 1.24; with UAACUGGGGGCCACAGCAGAAGCGUUCACGUCGCAGCCCCAGUCAGAUUCUGGUGAAUCUGCGAAUUCUGCUGUAUAUCCC, 0.36. With UAACUGGGGGCCACAGCAGAAGCGUUCACGACGCAGCCCCUGUCAGAUUCUGGUGAAUCUGCGAAUUCUGCCGUAUAUCUC the figure was 0.83; with UAACUGGGGGCCACAGCAGAAGCGUUCACGCCGCAGCCCCUGUCAGACUCUGGUGGACCAGCGAAUUCUGCUGUAUAACUC, 0.16. For UAACUGGGGGCCACAGCAGAAGCGUUCACGUCGCAGCCCCCGUCAGACUCUGGUGGUUCUGCGAAUUCUGCUGUAUAUCAC, the self-cleavage was 0.2. In the case of UAACUGGGGGCCACAGCAGAAGCGUUCACGUCGCAGCCCCCGUCAGGUUCUGGUAAAUCUGCGAAUUCUGCCGUAUAUCUC, the self-cleavage came to 0.83. With UAACUGGGGGCCACAGCAGAAGCGUUCACGUCGCAGCCCCGGUCAGAUUCUGGUGAAUCUGCGAAUUCUGCCGUAUAUCUC the figure was 0.32. With UAACUGGGGGCCACAGCAGAAGCGUUCACGUCGCAGCCCCAGUCAGAUUCUGGUAAAUCUGCGAACUCUGCUGUAUAUCUC the figure was 0.27; with UAACUGGGGGCCACAGCAGAAGCGUUCACGCCGCAACCCCUGUCGGAUUCUGGUGAAUCUGCGAAUUCUGCUGUAUAUCUC, 0.15; with UAACUGGGGGCCACAGCAGAAGCGUUCACGUCGCAGCCCCUGCCAGAUUCUGGUGAAUCUGCGAAUUCGGCUGUAUAUCAC, 0.32.

In the case of UAACUGGGGGCCACAGCAGAAGCGUUCACGUCGCAGCCCCAGUCGGAUUCUGGUGAAUCUGCGAAUUCUGCUGUAUAUCUC, the self-cleavage amounted to 0.35. In the case of UAACUGGGGGCCACAGCAGAAGCGUUCACGUCGCAGCCCCUGUCAGAUCCUGGUGAAUCUGCGAAUUCUGCUGUAUAUCUA, the self-cleavage worked out at 0.53. Regarding UAACUGGGGGCCACAGCAGAAGCGUUCACGCCGCAGCCCCUGCCAGAAUCUGGUGAAUCUGCGAAUUCUGCCGUAUUUCUC, the self-cleavage was found to be 0.07.

As for UAACUGGGGGCCACAGCAGAAGCGUUCACGUCGCAGCCCCUGGCAGAUUCUGGUGAGUCUGCGAAUUCUGCUGAAUAUCUC, the self-cleavage was 0.44.

As to UAACUGGGGGCCACAGCAGAAGCGUUCACGACGCAGCCCCUGUCAGACUCUGGUGAAUCUGCGAAUUCUGCUGUAUAUCUC, the self-cleavage was 0.61. Take UAACUGGGGGCCACAGCAGAAGCGUUCACGUCGCAGCCCCUGUCAGACUCCGGUGAAUCCGUGAAUUCUGCUGUAUAUCUC: the self-cleavage came out at 0.35. For the variant UAACUGGGGGCCACAGCAGAAGCGUUCACGCCGCUGCCCCUGUCAGAUUCUGGUGAAUCUGCGAAUUCUGCUGUAUGUCUC, the self-cleavage stood at 0.41. As to UAACUGGGGGCCACAGCAGAAGCGUUCACGUCGCAGCCCCUGCCAGACUCUGGUGAAUCUGCGAAUUCUGCUGUAUAUCUC, the self-cleavage was determined as 0.13.

For UAACUGGGGGCCACAGCAGAAGCGUUCACGUCGCAGCCCCUGUCAGACUCUGGUGAAUCUGCGGAUACUGCUGUACAUCUC, the self-cleavage was 0.08. With UAACUGGGGGCCACAGCAGAAGCGUUCACGUCGCAGCCCCUGUCAGAUCUUGGUGCAUCUGCGAAUUCUGCUGUAUAUCCC the figure was 1.09; with UAACUGGGGGCCACAGCAGAAGCGUUCACGUCGCAGCCCCUGCCGGAUUCUGGUGAAUCUGCGAAUUCUGCUGUAUAUCUC, 0.66.
